Molecules are shown by their SMILES. The full ranking holds about 110,000 compounds; the median of “z-score” is about -0.1, and the highest 2% start at about 2. The list shows a part of the results. Active and inactive are the calls of the source.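 Rule for the calls: active = z-score in the third read window above 3 or below -3; inactive = the rest.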

For the assay, the target named is Metabotropic glutamate receptor 8 (Rattus norvegicus) (UniProt P70579). Put plainly: mGluR8 Gi/Go-coupled signaling modulation – cell-based, rat, thallium flux, HTS, primary screen (AID 488969). The conditions noted are these: HEK293 rat mGluR8, GIRK (G protein-gated inwardly rectifying potassium channel) thallium flux, FluoZin2; at 10 µM; stronger effect = higher value; submaximal glutamate (EC20) added with thallium.
Chain of UniProt P70579 (P70579 whole entry, looked up): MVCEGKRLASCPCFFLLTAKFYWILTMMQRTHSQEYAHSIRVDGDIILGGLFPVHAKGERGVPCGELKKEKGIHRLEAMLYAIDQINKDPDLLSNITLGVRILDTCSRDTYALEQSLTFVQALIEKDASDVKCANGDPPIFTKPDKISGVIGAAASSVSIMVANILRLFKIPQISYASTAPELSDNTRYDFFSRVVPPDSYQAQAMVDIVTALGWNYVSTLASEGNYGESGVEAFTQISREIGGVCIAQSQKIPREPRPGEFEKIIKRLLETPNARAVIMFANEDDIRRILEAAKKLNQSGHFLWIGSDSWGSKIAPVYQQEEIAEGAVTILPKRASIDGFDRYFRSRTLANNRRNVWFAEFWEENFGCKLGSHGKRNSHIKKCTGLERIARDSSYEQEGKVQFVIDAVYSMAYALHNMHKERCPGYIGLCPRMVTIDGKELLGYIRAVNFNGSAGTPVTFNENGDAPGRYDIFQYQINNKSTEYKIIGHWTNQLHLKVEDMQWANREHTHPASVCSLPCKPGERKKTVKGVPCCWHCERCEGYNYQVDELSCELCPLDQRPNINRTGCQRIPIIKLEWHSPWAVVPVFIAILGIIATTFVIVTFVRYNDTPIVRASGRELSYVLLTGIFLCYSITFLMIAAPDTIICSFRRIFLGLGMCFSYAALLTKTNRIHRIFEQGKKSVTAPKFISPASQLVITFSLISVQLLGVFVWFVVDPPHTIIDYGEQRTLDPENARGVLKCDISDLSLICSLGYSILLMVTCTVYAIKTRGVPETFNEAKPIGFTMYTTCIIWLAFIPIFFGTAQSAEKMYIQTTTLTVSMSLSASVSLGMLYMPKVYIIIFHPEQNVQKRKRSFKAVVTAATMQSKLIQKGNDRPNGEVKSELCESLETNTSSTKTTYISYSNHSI
`C(=N\Nc1nc(N2CCOCC2)nc(N2CCOCC2)n1)/c1cccnc1` gave a z-score of 0.593.
The figure for `CCOC(=O)c1cccc(NC(=O)CSc2nnnn2CC)c1` is 1.72; for `CCCN(Cc1ccccc1)C(=S)Nc1ccc(OC(F)F)cc1` it is 1.61.
`CC(C)N(C(=O)c1ccc2nc3c4ccccc4c4ccccc4c3nc2c1)C(C)C`: the z-score worked out at 0.179.
The value for `CCCOc1ccc(NC2=CC(=O)CC(C)(C)C2)cc1` was 0.0931; that for `Cc1cc(Br)ccc1SCC(=O)OCC(=O)Nc1ncc(C(F)(F)F)cc1Cl` was -0.668.
`CCOC(=O)Cn1c(=O)oc2cc(S(=O)(=O)N3CCC(N4CCCCC4)CC3)ccc21` registered a z-score of 0.198.
On to `O=C(NCCc1cn2ccccc2n1)C1CCCCC1`, for which the z-score is 0.268.
The value for `CC(C)(C)NS(=O)(=O)c1ccc2nc(NC(=O)Cc3cccs3)sc2c1` was -0.427.
The value for `CCn1c(O)c(N=NC(=O)c2ccc(CSc3nncn3C)cc2)c2ccccc21` was -0.256; that for `O=C(CSc1nc(-c2ccccc2)c(-c2ccccc2)[nH]1)Nc1nccs1` was -0.297.
`CCn1c(SCC(=O)NC)nnc1C(C)C`: the z-score was -0.182.
Take `COc1ccc(C(C(=O)NC2CCCC2)N(C(=O)c2ccoc2C)c2ccc(C)c(C)c2)cc1` (centres undefined): the z-score is -0.292.
Compound `Cc1ccc(SCCC(=O)Nc2ccc(Br)c(C)c2)cc1` had a z-score of -0.0218.
The figure for `CCOc1ccc2nc(NC(=O)c3ccoc3C)sc2c1` is -0.855.
Consider `C1=Nc2c(Nc3ccccc3)ncnc2Oc2ccccc21`, for which the z-score was -1.41.
The figure for `CN(CCC#N)C(=O)COC(=O)c1c2c(nc3ccccc13)/C(=C/c1ccco1)CC2` is -0.177; for `COc1ccc(NC2=CC(=O)CC(c3ccc(C)cc3)C2)c(OC)c1` (centres undefined) it is -0.296; for `Cc1sc2nc(CSc3nnnn3-c3ccc(Cl)cc3)[nH]c(=O)c2c1C` it is -0.255.
For the compound `CC1C/C(=N/NC(=O)c2cccs2)CC(C)(C)C1` (centres undefined), the z-score was found to be 0.0467.
For `N#Cc1ccc(-c2ccccc2)nc1SCC(=O)c1cc2ccccc2oc1=O`, the z-score is -0.35.
Turning to `O=C(NCc1ccc2c(c1)OCO2)c1ccc(NS(=O)(=O)c2ccc3c(c2)OCCO3)cc1`, the z-score was -0.267.
As to `COc1cc(C)ccc1OCCOCCOc1cc(C)c(C)cc1Br`, the z-score was -0.0614.
As for `Cc1cc(C(=O)N/N=C/c2c[nH]c3ccccc23)c(C)o1`, the z-score is 1.24.
The value for `CCOC(=O)C1CCCCN1Cc1ccc(OC)c(OC)c1OC` (centres undefined) was -0.361; that for `O=C(Nc1ccccc1N(C(=O)c1ccco1)S(=O)(=O)c1cccs1)c1ccco1` was -0.191.
`COc1ccc(/C(O)=C2\C(=O)C(=O)N(c3cc(C)on3)C2c2ccccc2OC)cc1` (centres undefined) registered a z-score of -1.82.
As for `Cc1cc(C(C)(C)C)ccc1OCCn1ccnc1`, the z-score is -0.144.
Compound `Cc1nn(-c2ccccc2Cl)c2sc(C(=O)Nc3nnc(C4CC4)s3)cc12` yielded a z-score of -0.611.
For `COc1ccc(CC(=O)N2CCN(c3ccc(C4=NNC(=O)CC4C)cc3)CC2)cc1` (centres undefined), the z-score is -0.0788.
In turn, `COC(=O)c1cccc(Nc2nc3ccccc3nc2C)c1` returned a z-score of -0.459.
The figure for `CC1CCOC(c2coc3ccccc3c2=O)O1` (centres undefined) is -0.579.
In the case of `O=C(COc1ccc2c(C(F)(F)F)cc(=O)oc2c1)Nc1ccc2c(c1)OCCO2`, the z-score is -0.0135.
The figure for `CCc1ccc(C2NC(=S)NC3=C2C(=O)N(c2ccccc2OC)C(c2ccc(CC)cc2)N3)cc1` (centres undefined) is 0.295; for `C=CCn1c(SCC(=O)NC2CCS(=O)(=O)C2)nnc1-c1cc2c(s1)CCC(CC)C2` (centres undefined) it is -1.13.
The compound `CC(C)C1Cc2c(sc3c2c(=O)n(-c2ccccc2)c2nncn32)CO1` (centres undefined) had a z-score of -0.448.
Regarding `COc1ccc(/C=c2/sc3nc(-c4ccccc4)c(-c4ccccc4)n3c2=O)cc1`, the z-score was determined as 0.0337.
With `COc1ccc2c(=O)c(N3C(=O)c4ccccc4C3=O)coc2c1`, the z-score came to 0.874.
The value for `CC(C)C(=O)Nc1nnn(C)n1` was active: 9.51; that for `c1csc(Cc2nc(-c3ccc(-n4cccc4)cc3)no2)c1` was 0.247.
The value for `O=C1CC(N2CCN(Cc3ccc4c(c3)OCO4)CC2)C(=O)N1Cc1ccc(N2CCCC2=O)cc1` (centres undefined) was 0.112; that for `O=C(CCS(=O)(=O)c1ccc(Br)s1)NCc1ccc2c(c1)OCO2` was -0.113.
Consider `O=C(NCc1ccc2c(c1)OCO2)C1CCC(CNS(=O)(=O)c2cccc3nsnc23)CC1` (centres undefined), for which the z-score came to 0.434.
The value for `COc1ccc(OC)c(S(=O)(=O)Nc2ccc(C(N)=O)cc2)c1` was -0.0929; that for `COc1c(Cl)cc(C(=O)Nc2ccccc2C(=O)O)cc1Cl` was -1.61.
On to `O=C1C2CC=CCC2C(=O)N1c1n[nH]c(Cc2ccccc2)n1` (centres undefined), for which the z-score is -0.185.
As to `O=C(NCCN1CCOCC1)c1ccc(CS(=O)(=O)c2ccc(Cl)cc2)o1`, the z-score was found to be 0.125.
The figure for `CC(C)(C)c1nc(SCC(=O)Nc2ccc3c(c2)OCCO3)c2ccccc2n1` is -0.00419.
Turning to `O=C(O)CCC(NC(=O)C(Cc1ccc2c(c1)OCO2)NC(=O)c1ccccc1)C(=O)O` (centres undefined), the z-score is -0.0783.
In turn, `Cc1cc(C)c(S(=O)(=O)c2ccccc2C(=O)O)c(C)c1` displayed a z-score of 1.21.
The value for `COC(=O)C(Cc1ccc(OC(=O)c2ccccc2Cl)cc1)N1Cc2ccccc2C1=O` (centres undefined) was -2.16.
The figure for `CC(=O)c1cc(-c2ccccc2)n(CC(=O)N2CCN(C3CCCC3)CC2)c1C` is -0.473.
The value for `CC(C)CC(NC(=O)OC(C)(C)C)C(=O)NCc1ccccc1` (centres undefined) was 0.346; that for `Cc1ccc(S(=O)(=O)NCC(C)NS(=O)(=O)c2ccc(C)cc2)cc1` (centres undefined) was 2.8; that for `Cc1cccc(C(=O)O/N=C2\CCCc3ccccc32)c1` was -0.0944.
Take `Clc1ccc(Cc2ccccc2)nn1`: the z-score was found to be 0.0291.
The figure for `CCC(CC)C(=O)Nc1ccccc1-n1cccc1` is 0.227; for `Cc1ccc(C)c(CS(=O)(=O)c2cn(CC(=O)N3CCC(C)CC3)c3ccccc23)c1` it is -0.551.
On to `CCOC(=O)Cc1cc(=O)n2[nH]c(-c3ccc(Cl)cc3)cc2n1`, for which the z-score was -0.486.
The value for `COc1ccccc1C(=O)N1CC2(C)CC1CC(C)(C)C2` (centres undefined) was -0.263.
The figure for `COc1ccc(NS(=O)(=O)c2cccc(C(=O)N/N=C(\C)c3ccncc3)c2)cc1` is -0.124; for `Cc1onc(-c2ccccc2)c1C(=O)N1CCOCC1` it is -0.272.
For `CCCN(CC(=O)Nc1ccc(C(N)=O)cc1)CC(=O)Nc1ccc(Cl)cc1Cl`, the z-score is -0.265.
The figure for `CSc1ccc(CNC2CC2)cc1` is -0.218.
Consider `Cc1ccccc1N(CC(=O)N/N=C/c1cc(C)n(-c2ccccc2C)c1C)S(C)(=O)=O`, for which the z-score is -0.854.
The figure for `CN1CCN(/C=N/C2=C(C#N)C(c3ccccc3)C3=C(CC(C)(C)CC3=O)O2)CC1` (centres undefined) is 0.0919; for `Cc1cc(C(=O)c2ccccc2)c(NC(=O)CCl)s1` it is -0.02; for `Cc1nc2ccc(NC(=O)N3CCCCC3)cc2s1` it is 0.236.
The value for `COc1ccccc1OCC(=O)N/N=C1/SCC(=O)N1Cc1ccccc1` was -0.336.
The value for `Cc1cc(C)c(-c2csc(Cc3nc(-c4cc5ccccc5oc4=O)cs3)n2)cc1C` was -0.0426; that for `O=C(CSCc1c(Cl)cccc1Cl)NCC1CCCO1` (centres undefined) was 0.4; that for `COc1cccc(C2=NN(C(=O)c3ccccc3)C(O)(C(F)(F)F)C2)c1` (centres undefined) was 2.79.
Compound `CCC(C)(C(=O)NC1CCCCC1)N(Cc1cccs1)C(=O)c1ccc(=O)[nH]c1` (centres undefined) displayed a z-score of -1.13.
`C/C(=N/Nc1cc(-c2ccccc2)nc(-c2ccccc2)n1)c1ccc(O)cc1` returned a z-score of -0.24.
For the compound `CCOc1cccc(C(=O)Nc2nnc(-c3cccs3)s2)c1`, the z-score is -0.0225.
The figure for `CCOCCCNC(=O)c1cn(C)c2ccc(S(=O)(=O)N(C)C3CCCCC3)cc2c1=O` is -0.205.
`Cc1ccc(SCCC(=O)NCC2CCCO2)cc1` (centres undefined) had a z-score of 0.277.
The value for `CCOc1cc(CNCCN(C)C)c(Cl)cc1OCC(=O)NCCc1ccccc1` was -0.307.
`COc1ccc(OC)c(S(=O)(=O)N2CCC(C(=O)N3CCN(Cc4ccccc4)CC3)CC2)c1`: the z-score came out at 0.163.
`Cc1ccc(N2C(=O)C3Sc4[nH]c(=O)sc4C(c4ccccc4)C3C2=O)cc1` (centres undefined) returned a z-score of -0.0232.
The value for `O=C(Cc1cccc2ccccc12)Nc1nc2ccccc2[nH]1` was -0.343; that for `CN1CCN(CC(O)COCc2ccc3c(c2)OCO3)CC1` (centres undefined) was 0.1; that for `O=C(Cn1nnc(-c2ccccc2)n1)OCc1ccccc1` was -0.682.
The value for `CCC(C)S(=O)(=O)c1snnc1C` (centres undefined) was -0.203; that for `N#C/C(=C/c1ccc(N2CCOCC2)o1)C(=O)N1CCOCC1` was -0.81; that for `COCCn1c(=NC(=O)c2ccco2)sc2cc(C(=O)OC)ccc21` was -0.298.
The value for `CCCCOC(=O)CCN1C(=O)/C(=C2\SC(=S)N(CCC(=O)OCCCC)C2=O)SC1=S` was 0.0657; that for `COc1ccc2cnnc(SCC(=O)Nc3ccc(C(C)=O)cc3)c2c1OC` was 0.233.
As for `O=C1CCC/C1=C/Nc1ccc2c(c1)OCO2`, the z-score was -0.133.
In the case of `Oc1nc(Nc2cccc(Cl)c2)sc1/C=C1\C=Nc2ccccc21`, the z-score was -0.421.
The value for `CN=C(Nc1cccc(OC)c1)SC1CC(=O)N(c2ccc(C(=O)O)cc2)C1=O` (centres undefined) was 0.144.
In the case of `CC(NC(=O)Cn1nc(C(F)(F)F)c2c1CCC2)c1ccccc1` (centres undefined), the z-score is -0.132.
The value for `CCC(CC)c1nc(NCCC(=O)O)c2ccccc2n1` was 0.794; that for `CN(C)S(=O)(=O)c1ccc(NC(=O)c2cc3ccccc3o2)cc1` was -0.429.
`COC(=O)C1=C(C)NC2=C(C(=O)CC(C)(C)C2)C1c1cccc(C)n1` (centres undefined) had a z-score of -0.0115.
`O=C(c1ccc2c3c(cccc13)CC2)N1CCOCC1` showed a z-score of -0.642.
`CCOC(=O)COc1ccc([N+](=O)[O-])cc1` yielded a z-score of 0.183.
The figure for `Cc1ccc(CC(=O)Nc2ccccc2-c2ccccc2)cc1C` is 0.122.
As for `Cc1ccc(CN2CCN(C(=O)C3CCC3)CC2)cc1`, the z-score was -0.128.
In turn, `Cc1ccc(NC(=O)Cn2nc(C)c3ccccc3c2=O)c(C)c1` showed a z-score of -0.883.
On to `O=c1c2ccccc2[nH]c(=S)n1Cc1cccs1`, for which the z-score turned out to be 2.21.
The value for `CCC(C)C(=O)Nc1nc(C)c(-c2csc(Nc3cc(OC)ccc3OC)n2)s1` (centres undefined) was 0.2.
The value for `COC(=O)c1c(-c2ccc(F)cc2)csc1NC(=O)c1ccco1` was -0.518; that for `CC(NC(=O)COC(=O)c1cc(NS(=O)(=O)c2ccc(Cl)c([N+](=O)[O-])c2)ccc1O)C1CC2CCC1C2` (centres undefined) was -0.436; that for `Cc1nc2nc(-c3ccc(Cl)cc3)[nH]n2c(=O)c1C` was -0.115.
The compound `O=C(O)c1ccccc1SC1CC(=O)N(C2CCCCC2)C1=O` (centres undefined) returned a z-score of -0.0935.
In turn, `CCC(C)NC(=O)c1c(N)n(/N=C/c2ccccn2)c2nc3ccccc3nc12` (centres undefined) registered a z-score of 0.186.
`COC(=O)N/N=C/c1ccccc1OCc1ccccc1` yielded a z-score of -0.0109.
The compound `O=C(CN(Cc1ccccc1)S(=O)(=O)c1ccccc1)N1CCOCC1` gave a z-score of -0.108.

(Values after PubChem BioAssay AID488969 (Vanderbilt High Throughput Screening Facility, 2010).)
